Experimental data published in PMC6919601, “Identification of Plasmodium dipeptidyl aminopeptidase allosteric inhibitors by high throughput screening” (PLoS ONE, 2019).
Out of some 110,000 compounds screened, about 230 (0.21%) showed an effect of 50% or more. The list shows a part of the results.

Each molecule was assayed against DPAP1 (Plasmodium falciparum, UniProt Q8IIJ9) (assay: primary screen, percent inhibition; read by cleavage of a fluorogenic dipeptide substrate; higher = more effect of the substance).
Design: species or system P. falciparum D10 trophozoite lysates; single well
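Also: 30 min substrate incubation versus DMSO and 10 µM JCP410 controls.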

Chain of DPAP1 (Q8IIJ9 whole entry, looked up): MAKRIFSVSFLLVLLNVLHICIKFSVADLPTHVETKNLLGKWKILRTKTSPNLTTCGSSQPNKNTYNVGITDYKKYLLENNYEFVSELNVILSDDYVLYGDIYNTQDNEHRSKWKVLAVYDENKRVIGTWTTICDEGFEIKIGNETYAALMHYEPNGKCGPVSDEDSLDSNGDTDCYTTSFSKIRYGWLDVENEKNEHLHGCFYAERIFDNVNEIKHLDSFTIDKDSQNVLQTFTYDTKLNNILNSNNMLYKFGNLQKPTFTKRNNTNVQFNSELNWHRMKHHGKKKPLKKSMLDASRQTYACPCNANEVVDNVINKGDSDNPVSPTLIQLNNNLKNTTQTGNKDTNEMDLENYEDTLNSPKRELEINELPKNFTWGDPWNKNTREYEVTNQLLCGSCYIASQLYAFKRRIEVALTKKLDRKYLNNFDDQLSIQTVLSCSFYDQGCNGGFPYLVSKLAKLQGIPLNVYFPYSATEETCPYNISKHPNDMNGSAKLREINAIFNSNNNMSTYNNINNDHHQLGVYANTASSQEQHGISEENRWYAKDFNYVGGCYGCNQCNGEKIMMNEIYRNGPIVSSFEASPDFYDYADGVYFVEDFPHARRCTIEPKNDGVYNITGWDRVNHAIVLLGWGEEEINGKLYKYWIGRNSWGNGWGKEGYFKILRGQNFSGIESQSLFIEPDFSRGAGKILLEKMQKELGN

| SMILES | % Inhibition @ 10 uM |
| --- | --- |
| CCc1nn2cc(-c3ccccc3)nc2s1 | 6.05% |
| O=C(Nc1ccc(Oc2ccc(NC(=O)c3cnccn3)cc2)cc1)c1cnccn1 | 0.722% |
| Cc1ccccc1-c1noc(-c2nnn(-c3ccccc3C(F)(F)F)c2N)n1 | 2.71% |
| CN(C)CCCN(CCCN(C)C)Cc1ccc(C(F)(F)F)cc1 | -0.0494% |
| COCC(=O)Nc1nc2nc(C)cc(C)n2n1 | -1.31% |
| Cc1nn(-c2ccccc2)c(Cl)c1C1C(C#N)=C(N)Oc2c1c(=O)oc1ccccc21 (stereo not drawn) | 13.5% |
| O=C1NC(=O)/C(=C\c2ccc(N3CCOCC3)cc2)S1 | -0.999% |
| Cc1cc(NC(=O)CSc2nc3nccnc3c(=O)n2CCc2c[nH]c3ccccc23)[nH]n1 | 1.1% |
| CCCCSC1=C(C#N)C(=O)NC(CO)S1 (stereo not drawn) | 3.35% |
| CCCCN(C)C(=O)Cn1cc2c(n1)-c1c(oc(C(=O)N3CCCC3)c1C)CC2 | -1.38% |
| C=Cc1ccc(CSc2nnc(C)n3c2cc2sccc23)cc1 | -1.09% |
| CCOc1ccc(N2CC(C(N)=O)CC2=O)cc1 (stereo not drawn) | 7.2% |
| O=[N+]([O-])c1cc(-c2n[nH]c(O)c2C2=NCCC2)c(Cl)cc1Cl | 4.9% |
| Cc1ccc(N2C(=O)c3ccccc3NC2c2cccc(O)c2)cc1 (stereo not drawn) | -7.02% |
| COc1ccc(-c2cc(C3CC3)nc3sc(C(=O)O)c(N)c23)cc1 | 33.3% |
| Cn1cnc2c(N3CCCCC3)nccc21 | -2.44% |
| OCC1CCCN(Cc2cccc(Cl)c2Cl)C1 (stereo not drawn) | -1.72% |
| Nc1nc(-c2ccccc2O)cs1 | -3.53% |
| CC(Sc1nc(N)cc(N)n1)C(=O)Nc1ccccc1 (stereo not drawn) | -5.26% |
| CC1=C(C#N)C(C(F)(F)F)(C(F)(F)F)NC(CCc2ccccc2)=N1 | 5.12% |
| Cc1c(Cc2c(C)n(CCO)c(=O)n(C)c2=O)c(=O)n(C)c(=O)n1CCO | -1.96% |
| COc1ccc(C2C(C#N)=C(N)Oc3c2c(C)nn3-c2ccc(Br)cc2)cc1 (stereo not drawn) | -6.86% |
| COc1cccc(C(=O)Nc2ccccc2C(F)(F)F)c1 | -2.22% |
| CN1CCN(C(=O)NCC23CC4CC(CC(C4)C2)C3)CC1 | -1.81% |
| CCc1ccc(/C=c2\sc3nc(-c4ccccc4)nn3c2=O)cc1 | 0.222% |
| O=C(Cc1noc2ccccc12)NCCc1ccc(Cl)cc1 | 3.44% |

| SMILES | % Inhibition @ 10 uM |
| --- | --- |
| Cc1cc(O)nc(SCC(=O)Nc2cccc(C(F)(F)F)c2)n1 | -2.83% |
| CC(=O)N1c2ccccc2C2OCCC2C1c1ccco1 (stereo not drawn) | 17.4% |
| CCOc1ccccc1N1CCN(S(=O)(=O)c2cc(Cl)ccc2Cl)CC1 | -5.14% |
| O=C1/C(=C\Nc2ccccc2)c2ccccc2C(=O)N1c1ccccc1 | -4.06% |
| COc1ccc(Br)c(C(=O)Nc2c(C)nc3ncnn3c2O)c1 | 1.43% |
| CCOc1ccccc1C1CC(=O)NC(C)=C1C(=O)OCC(C)C (stereo not drawn) | -0.396% |
| COC(=O)c1ccc(OCC(O)Cn2c[n+](C)c3cc(C)c(C)cc32)cc1 (stereo not drawn) | 3.47% |
| COC(=O)c1cc2occc2n1CC(=O)N(C)C1CCCCC1 | -2.18% |
| Sc1nnc(-c2ccncc2)n1Cc1ccco1 | 0.238% |
| COC(=O)CSc1nc(-c2ccc(Br)cc2)cc(-c2cccs2)c1C#N | 1.42% |
| CCOc1cccc2cc(-c3csc(NC(=O)CCC(=O)O)n3)c(=O)oc12 | -0.326% |
| N=C1/C(=C\c2coc3ccccc3c2=O)C(=O)N=C2SC(c3ccccc3F)=NN12 | -5.76% |
| Cc1ccc(CNC(=O)c2ccc(CS(=O)(=O)Cc3ccccc3C)o2)cc1 | -2.01% |
| CCOC(=O)C1=C(C)N=c2s/c(=C\c3ccccc3)c(=O)n2C1c1ccc(C)cc1 (stereo not drawn) | -3.44% |
| CC1=C(C(=O)Nc2ccccc2C)C(c2ccc(Cl)cc2)n2nc(CCCO)nc2N1 (stereo not drawn) | -4.33% |
| CCOc1ccccc1N1CCN(Cc2[nH]cnc2C)CC1 | 0.0792% |
| Cc1nc2c(C(=O)NCc3ccccc3Cl)cnn2c(O)c1Cc1ccccc1F | 16.3% |
| Cc1cc(=O)n(CC(=O)NCCc2ccccc2)c2c1c(C)nn2-c1cccc(F)c1 | 4.81% |
| CCCC(=O)NC(C)c1nc2ccccc2n1Cc1ccc(C)cc1 (stereo not drawn) | -2.28% |
| Cc1c(CC(=O)N2CCCCC2)c(=O)oc2cc(O)c(Cl)cc12 | 0.895% |
| Cc1cc(C)c2c(n1)sc1c(N3CCN(CCO)CC3)ncnc12 | -5.41% |
| COc1ccccc1/C=C/C=C1\N=C(c2ccccc2F)OC1=O | 1.64% |
| COc1ccc(C(=O)Nc2nnc(Cc3c[nH]c4ccccc34)s2)cc1 | -6.17% |
| C=CCn1c2ccccc2n2nc(C)nc12 | 6.54% |
| CSc1ccc(CN2CCN(c3ccccc3)CC2)cc1 | -6.47% |
